Assay results taken from paper PMC4336329 (PLoS ONE, 2015).
Screen size: about 310,000 compounds; about 14,000 (4.5%) showed an effect of 50% or more. Effects have a minus sign here. This is one part of the list.

Target: human ether-à-go-go-related gene (hERG) potassium channel (human, UniProt Q12809)
Assay: primary screen, population patch clamp on CHO cells stably expressing hERG
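Note: peak tail current of the secondary pulse compared with the same well before compound.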

Sequence of human ether-à-go-go-related gene (hERG) potassium channel (Q12809 whole entry, looked up): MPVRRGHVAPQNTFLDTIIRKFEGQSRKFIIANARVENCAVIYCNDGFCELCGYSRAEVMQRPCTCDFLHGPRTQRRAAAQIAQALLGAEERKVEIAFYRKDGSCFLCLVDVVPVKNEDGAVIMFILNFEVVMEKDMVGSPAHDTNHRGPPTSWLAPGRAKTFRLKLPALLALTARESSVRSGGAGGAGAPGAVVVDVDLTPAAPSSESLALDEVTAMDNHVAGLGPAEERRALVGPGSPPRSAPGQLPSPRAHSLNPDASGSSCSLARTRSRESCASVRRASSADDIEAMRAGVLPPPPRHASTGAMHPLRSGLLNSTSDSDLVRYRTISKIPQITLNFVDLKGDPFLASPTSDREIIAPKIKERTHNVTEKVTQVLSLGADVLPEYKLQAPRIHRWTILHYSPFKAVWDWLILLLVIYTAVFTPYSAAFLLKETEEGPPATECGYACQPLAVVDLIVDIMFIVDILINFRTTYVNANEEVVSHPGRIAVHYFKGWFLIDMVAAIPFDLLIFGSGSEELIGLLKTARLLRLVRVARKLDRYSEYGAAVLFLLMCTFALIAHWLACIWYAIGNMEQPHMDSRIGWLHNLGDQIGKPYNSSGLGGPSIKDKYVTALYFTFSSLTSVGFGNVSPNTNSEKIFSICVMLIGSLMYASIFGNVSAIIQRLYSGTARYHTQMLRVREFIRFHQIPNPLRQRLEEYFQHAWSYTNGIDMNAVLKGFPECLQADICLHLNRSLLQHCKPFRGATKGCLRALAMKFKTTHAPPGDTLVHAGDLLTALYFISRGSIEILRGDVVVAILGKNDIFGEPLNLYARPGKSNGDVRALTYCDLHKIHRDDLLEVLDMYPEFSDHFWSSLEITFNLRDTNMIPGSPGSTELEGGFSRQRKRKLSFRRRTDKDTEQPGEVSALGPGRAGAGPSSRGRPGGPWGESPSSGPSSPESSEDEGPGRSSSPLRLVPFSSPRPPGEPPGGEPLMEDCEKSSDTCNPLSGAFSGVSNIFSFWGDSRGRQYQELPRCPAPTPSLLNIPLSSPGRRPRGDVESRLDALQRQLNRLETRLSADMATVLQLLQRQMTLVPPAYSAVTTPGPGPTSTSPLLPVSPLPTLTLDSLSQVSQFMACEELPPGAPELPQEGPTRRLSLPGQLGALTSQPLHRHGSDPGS

| SMILES | hERG current change (%, negative = inhibition) at 10uM [%] |
| --- | --- |
| O=C(CSc1nc2ccc(Cl)cc2[nH]1)N1CCN(C(=O)c2ccco2)CC1 | -56.1 |
| C/C(=N\N=C1\NC(=O)CC(C(=O)O)S1)c1cccs1 (centres unmarked) | 1.4 |
| O=C(Nc1cccnc1)c1ccc(Cl)c(S(=O)(=O)N2CCCCC2)c1 | -15.6 |
| CNC(=O)Oc1ccc2c(c1)C(=O)c1ccccc1CO2 | 6.76 |
| CC1=C(C(=O)Nc2ccc(F)c(F)c2)C(c2cccs2)NC(=S)N1 (centres unmarked) | 4.53 |
| Cc1cc(C)nc(NS(=O)(=O)c2ccc(N=NN(C)C)cc2)n1 | 1.26 |
| COc1ccccc1NC(=O)CSc1nccn1Cc1ccc(F)cc1 | -11.1 |
| Cc1cccc(N2CCN(S(=O)(=O)c3ccc4c(c3)C(C)(C)C(=O)N4C)CC2C)c1 (centres unmarked) | -6.38 |
| COc1ccc(-c2cc(C(=O)N3CCOCC3)no2)cc1 | 19.9 |
| Cc1ccc(CSCc2ccc(C(=O)O)o2)cc1 | 21.8 |
| C(=N\N1CCN(c2ccccn2)CC1)/C1=C(N2CCOCC2)C(=C/c2ccccc2)/CC1 | 13.9 |
| Cc1cc(C)c(C(=O)Nc2ccc(Br)c(C(F)(F)F)c2)c(C)c1 | 12.1 |
| C=CCNC(=O)c1ccc2c3n(nc2c1)-c1ccc(C)cc1CO3 | -24.6 |
| O=c1[nH]c2ccccc2c(O)c1Cc1ccccc1 | 9.83 |
| CCOC(=O)C1=C(CN2CCN(C(=O)c3ccco3)CC2)NC(=O)NC1c1ccc(F)cc1 (centres unmarked) | -62.9 |
| COc1ccccc1C(CNC(=O)C(C)(C)Oc1ccc(Cl)cc1)N1CCCC1 (centres unmarked) | -45.1 |
| COCc1cc(Sc2ccc(OC)cc2)nc(-c2ccccc2)n1 | 23 |
| Cn1c(O)c(N=NC(=O)c2cccc(S(=O)(=O)N3CCCCC3)c2)c2ccccc21 | -16.1 |
| CCCNC(=O)c1cccc(S(=O)(=O)N2CC3(C)CC2CC(C)(C)C3)c1 (centres unmarked) | -57.6 |
| Cn1c(SCC(=O)Nc2nccs2)nnc1-c1ccncc1 | -14.3 |
| O=C(Nc1ccccc1)c1nc[nH]c1C(=O)N1CCc2ccccc2C1 | 3.15 |
| CCOC(=O)c1ccc(N=Cc2c(O)n(-c3ccc(OC)cc3)c(=S)[nH]c2=O)cc1 | 22.1 |
| Oc1ccccc1C=NCCN=Cc1ccccc1O | -7.43 |

| SMILES | hERG current change (%, negative = inhibition) at 10uM [%] |
| --- | --- |
| CC(=O)c1cccc(NC(=O)NCc2ccco2)c1 | -2.14 |
| CCN1C(=O)C(=O)N(CC(=O)c2[nH]c(C)c(C(C)=O)c2C)C1=O | 0.992 |
| CCOC(=O)C(C)(CC)NC(=O)CSP(=S)(OCC)OCC (centres unmarked) | 3.79 |
| COC(=O)c1sc(NC(=O)c2oc3ccccc3c2C)nc1C | 8.99 |
| O=[N+]([O-])c1ccccc1S(=O)(=O)NC1CCCC1 | 7.33 |
| CSc1ccc(Cl)c(C(=O)OCC(=O)N(C)CCC#N)c1 | -15.2 |
| COc1ccccc1NC(=O)Cn1cnc2c(oc3ccccc32)c1=O | -13.6 |
| O=C(CSC1=NS(=O)(=O)c2ccccc2N1)Nc1ccccc1F | 8.64 |
| c1ccc(Cc2nnc(N3CCCCC3)c3ccccc23)cc1 | -26.7 |
| COc1ccc(NC(=S)N2CCN(C(=O)c3ccco3)CC2)cc1OC | 14.6 |
| CN(CCNC(=O)C1CCC(=O)N(Cc2cccc(F)c2)C1)CCc1ccccc1 (centres unmarked) | -46.3 |
| COc1cccc2cc(C(=O)N3CCN(C(=O)c4ccco4)CC3)c(=O)oc12 | 0.583 |
| COc1ccc(Br)cc1CNCCc1ccc2c(c1)OCO2 | -60.7 |
| Cc1ccc(OCc2nnc(SCC(=O)Nc3ccc(N4CCOCC4)cc3)o2)cc1 | 12.6 |
| CCOC(=O)/C=c1\s/c(=C(\C#N)C(N)=O)n(-c2ccccc2)c1=O | 2.68 |
| Cc1cc(C)c(C(=O)Cn2nc(C)c([N+](=O)[O-])c2C)cc1C | 7.58 |
| CC(=O)N1CCCc2cc(S(=O)(=O)N3CCCC(C(=O)NCc4ccc(Cl)cc4)C3)ccc21 (centres unmarked) | -10.4 |
| COc1ccc(S(=O)(=O)N2CCN(c3cccc(C)c3C)CC2)cc1 | -0.301 |
| CCC(=O)Nn1c(C)nnc1C | 2.96 |
| COc1ccccc1C(=O)NNC(=O)c1ccc(Br)cc1 | 19.6 |
| CCNC(=O)CCS(=O)(=O)c1ccc2ccccc2c1 | 13.3 |
| CS(=O)(=O)c1cccc(NC(=O)C2CC2)c1 | 2.74 |
| O=C(C1CCN(C2CC(=O)N(c3cccc(Cl)c3)C2=O)CC1)N1CCCC1 (centres unmarked) | 7.53 |

| SMILES | hERG current change (%, negative = inhibition) at 10uM [%] |
| --- | --- |
| COc1ccc(CCNS(=O)(=O)c2csc(C(N)=O)c2)cc1OC | 17.9 |
| O=C(CSc1ncn[nH]1)NCCc1ccccc1 | 5.95 |
| COc1ccc(CC2(CO)CCN(Cc3cnc(-c4ccccc4C)nc3)CC2)cc1 | -20.6 |
| COc1ccc(C(=O)NNC2=NC(C)(C)Cc3cc(C)c(C)cc32)cc1 | 25.3 |
| COc1ccc(C(=O)Nc2cc(-c3nn4c(C)nnc4s3)ccc2C)cc1 | -41.8 |
| Cc1cc(NC(=O)CCC(=O)N(C2CC2)C(C(=O)NC(C)(C)C)c2ccccc2Cl)no1 (centres unmarked) | 9.81 |
| COC(=O)C1=C(CSc2nc3c(cc2C#N)CN(C)CC3)OC(N)=C(C#N)C1c1ccc(F)cc1 (centres unmarked) | -28.5 |
| CC(=O)OCC[N+](C)(C)C.[Cl-] | 29.2 |
| COC(C/C=C/[C@@H](O)[C@@H](C)OCc1ccccc1)OC | 15.7 |
| CCC/C=C(\CCC)C(NP(=O)(c1ccccc1)c1ccccc1)c1ccccc1 (centres unmarked) | 1.59 |
| Cc1cc(NC(=O)CSc2ncnc3sccc23)no1 | 14.4 |
| CCOC(=O)CSc1cc(C)nc2ccc(OC)cc12 | 7.42 |
| O=C1Nc2ccccc2N(O)N1c1ccc(S(=O)(=O)Nc2ccccn2)cc1 | 15.8 |
| Cc1cccc2cc(C#N)c(NCCNS(=O)(=O)c3ccc4c(c3)OCCO4)nc12 | 6.43 |
| COc1cccc(NC(=O)c2c(C)cc(C)cc2CC(C)(C)C(=O)O)c1 | 12.9 |
| O=C(CCCCn1c(=O)[nH]c2ccccc2c1=O)NC1CCN(Cc2ccccc2)CC1 | -18.9 |
| Cc1sc(NC(=O)C2=COCCO2)nc1-c1ccc(Br)cc1 | 6.47 |
| CC(C)Sc1ncnc2c1cnn2-c1ccccc1 | 3.86 |
| COC(=O)c1ccc(C)c(NC(=O)CCc2ccc(OC)cc2)c1 | -3.01 |
| CC1(C)CC2CC(C)(CN2C(=O)CCCN2C(=O)c3ccccc3C2=O)C1 (centres unmarked) | -17.9 |
| Cc1cc(O)cc(O)c1C=NCc1ccco1 | -8.53 |
| N#C/C(=C/c1ccc(Br)s1)C(=O)NCCc1c[nH]c2ccccc12 | 18.8 |
| COc1ccc(C)cc1NC(=O)CN1C(=O)COc2ccc(S(=O)(=O)N3CCOCC3)cc21 | 15.5 |

| SMILES | hERG current change (%, negative = inhibition) at 10uM [%] |
| --- | --- |
| CCn1cc(CN2CCC(n3nccc3NC(=O)CCOc3ccccc3)CC2)cn1 | -12.9 |
| CC(C)(O)CCc1c(-c2ccc(O)cc2O)oc2c3c(cc(O)c2c1=O)OC(C)(C)C=C3 | 13.7 |
| CC(C)(C)C1CCC(C(=O)Nc2cccnc2)CC1 (centres unmarked) | -36.4 |
| COc1ccc(C(CNC(=O)c2ccc(-c3ccccc3)cc2)N(C)C)cc1OC (centres unmarked) | -24.4 |
| O=C(c1ccc2c3c(cccc13)CC2)C1CCCN(C(=O)c2cccnc2)C1 (centres unmarked) | -19.4 |
| CCCCN(C(=O)CCC(=O)Nc1cc(C)on1)C(C(=O)NC1CCCC1)c1ccccc1C (centres unmarked) | -8.67 |
| Cc1cccc(-n2[nH]c(C)c(C=Nc3ccc4[nH]c(=O)[nH]c4c3)c2=O)c1 | -0.0304 |
| C#Cc1ccc(CN2CCN(Cc3ccsc3)C(CCO)C2)cc1 (centres unmarked) | -34.6 |
| C=CCNC(=O)c1cc2c(=O)n3ccccc3nc2s1 | 10.4 |
| CCOC(=O)c1sc(=NC(=O)c2cccc(Br)c2)n(C)c1C | 27.2 |
| CN1CCN(C(=S)NCCc2ccccc2)CC1.O=C(O)C(=O)O | -14.5 |
| CN(c1ccccc1)S(=O)(=O)c1cccc(NC(=O)Nc2ccc(Cl)cc2C#N)c1 | -29.5 |
| NC(=O)COC(=O)c1ccc2c(c1)C(=O)N(Cc1ccco1)C2=O | -5.91 |
| CN(Cc1ccccc1)C(=O)CCn1c(=O)oc2ccccc21 | -24.3 |
| O=C(COC(=O)C1CCCO1)Nc1cccc(C(F)(F)F)c1 (centres unmarked) | 21.1 |
| COc1ccc(CNC(=O)C2CCC(=O)N(CCCN3CCCC3=O)C2)c(OC)c1 (centres unmarked) | 9.7 |
| COc1ccc(C(C(=O)NC2CCCCC2)N(C(=O)c2ccccn2)c2cccnc2)c(OC)c1 (centres unmarked) | 20.6 |
| CCCS(=O)(=O)N1CCC(C(=O)N2CCC3(CC2)OCCO3)CC1 | -2.86 |
| CCn1nc(NC(=O)CC(C)C)c2cc3ccc(C)cc3nc21 | 20.2 |
| CC(C)(C)NC(=S)NNC(=O)[C@H]1C[C@@H]1c1ccccc1 | 11 |
